Test results as given in patent US10334859B2, “Method and pesticidal mixtures for controlling Pentatomidae pests” (BASF SE, priority 2014, dated 2019).
Read-outs that look alike come from different tables or passages of the source.

What was measured:
[1] = system: Phytophthora infestans; assay type: cell-based; settings: growth at 405 nm 7 days after inoculation
[2] = system: yellow fever mosquito (Aedes aegypti); settings: larval mortality after 2 days
[3] = system: southern green stink bug (Nezara viridula); assay: Test 5: control of southern green stink bug, dipped green beans and bugs; settings: 4th instar, recorded after 5 days
[4] = system: Mediterranean fruitfly (Ceratitis capitata)
[5] = system: tobacco budworm (Heliothis virescens); settings: 0.08 ppm

CC(C)NC(=O)N1CC(=O)N(c2cc(Cl)cc(Cl)c2)C1=O [Iprodion, iprodione]
Observed efficacy ([1]; 0.004 ppm): 0%

CC(C)(C)[C@]1(O)C[C@@H]2OC(=O)C[C@@]23C(=O)O[C@@H]2OC(=O)[C@H](O)[C@]213 [Bilobalide, (3aS,5aR,8aS,9R,10aR)-9-tert-butyl-8,9-dihydroxydihydro-9H-furo[2,3-b]furo[3′,2′;2,3]cyclopenta[1,2-c]furan-2,4,7(3H,8H)-trione]
Observed efficacy ([2]; 160 ppm): 0%

C[C@@H]1C(=O)O[C@H]2C[C@@]34[C@H]5C[C@@H](C(C)(C)C)[C@]36[C@@H](OC(=O)[C@@H]6O)O[C@@]4(C(=O)O5)[C@]21O [Ginkgolide A]
Observed efficacy ([1]; 63 ppm): 38% | Observed efficacy ([3]; 5 ppm): 58%

thiamethoxam
Observed efficacy ([2]; 0.8 ppm): 50% | Observed efficacy ([4]; 0.08 ppm): 0%

spinosad
Observed efficacy ([3]; 10 ppm): 17%

CCCN(CCOc1c(Cl)cc(Cl)cc1Cl)C(=O)n1ccnc1 [Prochloraz, prochloraz]
Observed efficacy ([1]; 0.016 ppm): 3%

COC(=O)Nc1nc2ccccc2[nH]1 [Carbendazim, carbendazim]
Observed efficacy ([1]; 0.004 ppm): 0%

CC1(C)C(C=C(Cl)Cl)C1C(=O)OC(C#N)c1cccc(Oc2ccccc2)c1 (stereo not drawn) [Alphacypermethrin, alpha-cypermethrin]
Observed efficacy ([4]; 0.4 ppm): 0% | Observed efficacy [5]: 0%

mancozeb
Observed efficacy ([1]; 0.004 ppm): 0% | Observed efficacy ([1]; 0.016 ppm): 15% | Observed efficacy ([1]; 0.063 ppm): 39% | Observed efficacy ([1]; 1 ppm): 20%
